# In all, about 33,000 sequences were measured (“E-score (-0.5 to 0.5)”: median about -0.043, highest 2% from about 0.37 on). The list shows a part of the results.
# Molecular target: T1, Upc2 (UniProt Q12151)
# T1 sequence: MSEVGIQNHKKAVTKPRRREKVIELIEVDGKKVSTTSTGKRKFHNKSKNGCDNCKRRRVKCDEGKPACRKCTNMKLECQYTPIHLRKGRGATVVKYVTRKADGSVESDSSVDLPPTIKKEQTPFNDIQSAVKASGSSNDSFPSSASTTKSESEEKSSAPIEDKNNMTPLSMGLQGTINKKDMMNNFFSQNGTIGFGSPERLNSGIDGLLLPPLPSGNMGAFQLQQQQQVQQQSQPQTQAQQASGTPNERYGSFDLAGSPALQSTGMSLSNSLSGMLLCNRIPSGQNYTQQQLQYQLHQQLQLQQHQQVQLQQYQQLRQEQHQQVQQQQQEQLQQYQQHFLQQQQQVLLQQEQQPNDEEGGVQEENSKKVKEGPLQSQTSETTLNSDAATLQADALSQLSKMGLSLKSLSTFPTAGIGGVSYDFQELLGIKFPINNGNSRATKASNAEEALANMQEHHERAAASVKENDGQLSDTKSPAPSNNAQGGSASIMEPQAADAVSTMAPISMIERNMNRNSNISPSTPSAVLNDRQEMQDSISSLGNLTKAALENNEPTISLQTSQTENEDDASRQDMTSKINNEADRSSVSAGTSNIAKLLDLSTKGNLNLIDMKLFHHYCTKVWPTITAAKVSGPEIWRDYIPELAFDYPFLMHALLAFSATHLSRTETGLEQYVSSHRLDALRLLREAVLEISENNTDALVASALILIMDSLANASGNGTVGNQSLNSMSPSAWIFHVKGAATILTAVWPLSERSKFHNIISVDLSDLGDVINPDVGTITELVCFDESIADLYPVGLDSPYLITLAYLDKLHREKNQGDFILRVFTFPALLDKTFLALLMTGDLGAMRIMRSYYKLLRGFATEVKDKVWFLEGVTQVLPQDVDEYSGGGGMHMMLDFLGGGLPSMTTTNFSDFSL
# Experiment: PBM E-score (8-mer binding enrichment) (E-score (-0.5 to 0.5)); higher = stronger / more preferred TF binding; most listed sequences are background and not binding sites
# Settings: protein concentration: 200 nM; construct: GST-full length
# Method in brief: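 Universal all-10-mer Agilent arrays, double-stranded by primer extension on fresh or once-stripped slides, were probed with about 100-200 nM GST-tagged yeast transcription factors made by PURExpress. Fluorescent anti-GST detected bound protein, and masliner normalised the scans. E-scores from the Universal PBM Analysis Suite were given to each ungapped eight-base word pooled with its reverse complement.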
row,Sequence,PBM E-score
1,GGACCGAA,0.131
2,AAGGGAAC,-0.0527
3,ACGGCCGT,0.267
4,CTTGCGGA,-0.0564
5,ATGTGTGC,-0.258
6,CATAACGA,0.141
7,TAGTGCAA,-0.0447
8,CGCAATAA,0.0937
9,ACATATAA,-0.0402
10,GTTAGCCA,-0.0759
11,AACTACGT,0.205
12,ATTACAGG,0.0596
13,ATGACAGA,-0.0136
14,GGGGCCAC,-0.383
15,GCCGGCAC,-0.155
16,GGATGCAC,-0.148
17,AGTTGGTC,-0.123
18,ATTCGAAA,0.0873
19,CAAGGAGA,-0.318
20,AAAACGAT,0.265
21,CCGAACCG,0.0623
22,AGCGACAT,0.177
23,ATTATACA,0.0589
24,ACGCTCGG,0.1
25,AACGCCCT,0.0379

row,Sequence,PBM E-score
1,CGGAGGAG,-0.182
2,CAACAGCG,-0.162
3,CAAATCGC,-0.195
4,GAGGGACC,-0.0177
5,CTTAAGTC,-0.0521
6,CGGTATGC,0.0857
7,CACCACGA,-0.0137
8,AGACACAG,-0.261
9,ACGGCATG,0.0199
10,CAGTATGA,-0.101
11,AAAATAAT,-0.0301
12,AGTCCGGA,-0.16
13,AGTAGCGA,0.139
14,CCAATAAA,-0.118
15,GACCTGTA,0.228
16,CTGGTTGA,-0.308
17,GGAAGCTA,-0.141
18,GTAGCTGA,-0.00218
19,CGAAGGTA,0.121
20,GCACAGAC,-0.0418
21,ACATTTGG,-0.28
22,ATAAAGGA,-0.202
23,AAAAGAAC,0.111
24,CTCGATAA,0.156
25,CCCCGTCG,0.108

row,Sequence,PBM E-score
1,AGACACAT,-0.104
2,GTGCAAGA,0.0734
3,ACTCACAT,-0.077
4,ATTATTCC,0.0868
5,ACCGTTCA,0.347
6,ACGCAGAC,0.0575
7,ATGGGTGG,-0.279
8,ATGTGACG,-0.145
9,GAAAGTGC,-0.189
10,CTTTAAGA,0.111
11,GAGCGACA,0.232
12,GCTGAGCA,-0.104
13,GCCCGCCC,0.0386
14,GTTAACCA,0.0416
15,CACAGTAA,0.093
16,CTCTCGAA,-0.0265
17,GTGAACTA,0.142
18,CGGAAGAG,-0.146
19,GGATATGA,0.00992
20,AAAAATAC,0.111
21,ACAAACTC,0.0429
22,ACCTACGG,-0.259
23,AACTAGAC,0.0567
24,AGCTCGAG,-0.0221
25,GAATTTCC,0.0147

row,Sequence,PBM E-score
1,ATCAGGCC,-0.0224
2,GAGCGCAC,0.0345
3,GTCATATA,-0.0244
4,AAGTCGGA,0.117
5,AATCAGAT,-0.162
6,TGCCGCCA,-0.172
7,GAAGGAAC,0.0488
8,CACCCGGC,-0.287
9,GTCCGGAC,-0.00114
10,CTCGCCAG,-0.0473
11,GTTCCAAC,-0.0469
12,ACTCGCTG,-0.0156
13,ACCTCAGG,-0.343
14,ACCAATCG,0.132
15,AGAATGAC,-0.169
16,CAGAGGCG,-0.18
17,AAGTGAAT,-0.0479
18,CAGTCTTC,-0.303
19,TAGTTACA,-0.0446
20,GCGGACAA,-0.0254
21,AAGAGTTG,0.117
22,AGTATGCA,-0.3
23,CACTCGAA,0.0152
24,CTCTACCA,-0.151
25,AGTAGTGA,-0.217

row,Sequence,PBM E-score
1,AGAGGGAT,-0.0529
2,AGGGAGGG,-0.209
3,GGCTATCA,-0.0833
4,CGATACTA,0.151
5,AGCTTCGG,-0.0342
6,ATGATTGC,-0.0185
7,CACTATCG,0.119
8,TGATGGCA,-0.146
9,CTCCGCAA,-0.146
10,AGAAGATA,-0.0372
11,CGTTTATA,0.45
12,CCATTAAA,-0.135
13,CACTGGCC,-0.197
14,CCTCGAGG,-0.177
15,CTTCCGGC,-0.226
16,GATAAGCA,0.00356
17,ACGCAGCA,0.0683
18,AGGCACAC,-0.226
19,CATCTGAG,-0.103
20,AGGGGTGC,-0.349
21,GTGAGAGA,-0.301
22,ACGTGACC,-0.0551
23,ACCCTGAG,-0.0885
24,ATAACTAG,-0.122
25,GACGCACA,-0.0642

row,Sequence,PBM E-score
1,CTATGATC,-0.196
2,ACACCTCA,-0.172
3,ACCGGCTC,-0.112
4,ACTCTCGG,-0.0515
5,TCCGAAAA,-0.112
6,GAATCGGC,-0.0702
7,CAAAGACC,-0.0909
8,CACCCATA,-0.082
9,GATGGACA,-0.12
10,CCAGGTTA,-0.0415
11,GTTCAAAA,0.103
12,ACTAATCT,-0.0819
13,CATCCGCC,-0.24
14,AGGCTGGA,-0.104
15,ACACGATC,0.123
16,CCGTCATC,-0.138
17,ATGATTCA,-0.0951
18,AGATTAGA,-0.141
19,AAGTTCGT,0.285
20,GAGCTGCA,0.0412
21,ATGACCTA,0.0652
22,CGCGCCCC,-0.21
23,GAATACCC,-0.0182
24,CTTTATAC,0.303
25,CGCCAGAC,0.0501

row,Sequence,PBM E-score
1,ACAAGTAA,-0.0231
2,CAGACTCC,-0.141
3,AGACGAGC,0.206
4,GCCTCCAA,-0.227
5,GCCGGAGA,0.0079
6,CTGCGCTA,-0.00207
7,CCATGACG,0.0362
8,ACCGCTTG,-0.0281
9,CAACGGGA,-0.0408
10,CGACATCC,0.139
11,AGATTTCC,-0.0644
12,ACGTTCTA,0.111
13,AAGGCAAA,-0.0665
14,CTGGTCTA,-0.14
15,GCCGACTA,0.0688
16,AGTAGAAT,-0.133
17,TCGCGAAA,0.259
18,TACGAGAA,0.447
19,CCGCATCG,0.00181
20,TGAAATAA,-0.065
21,CTAAAATC,-0.126
22,GCTTTTAA,-0.0112
